Screen size: about 310,000 compounds; about 2,200 (0.71%) showed an effect of 50% or more. The effect is printed as a negative number. This is one part of the list.
target: human ether-à-go-go-related gene (hERG) potassium channel (human, UniProt Q12809); test: primary screen, population patch clamp on CHO cells stably expressing hERG
Sequence (Q12809 whole entry, looked up): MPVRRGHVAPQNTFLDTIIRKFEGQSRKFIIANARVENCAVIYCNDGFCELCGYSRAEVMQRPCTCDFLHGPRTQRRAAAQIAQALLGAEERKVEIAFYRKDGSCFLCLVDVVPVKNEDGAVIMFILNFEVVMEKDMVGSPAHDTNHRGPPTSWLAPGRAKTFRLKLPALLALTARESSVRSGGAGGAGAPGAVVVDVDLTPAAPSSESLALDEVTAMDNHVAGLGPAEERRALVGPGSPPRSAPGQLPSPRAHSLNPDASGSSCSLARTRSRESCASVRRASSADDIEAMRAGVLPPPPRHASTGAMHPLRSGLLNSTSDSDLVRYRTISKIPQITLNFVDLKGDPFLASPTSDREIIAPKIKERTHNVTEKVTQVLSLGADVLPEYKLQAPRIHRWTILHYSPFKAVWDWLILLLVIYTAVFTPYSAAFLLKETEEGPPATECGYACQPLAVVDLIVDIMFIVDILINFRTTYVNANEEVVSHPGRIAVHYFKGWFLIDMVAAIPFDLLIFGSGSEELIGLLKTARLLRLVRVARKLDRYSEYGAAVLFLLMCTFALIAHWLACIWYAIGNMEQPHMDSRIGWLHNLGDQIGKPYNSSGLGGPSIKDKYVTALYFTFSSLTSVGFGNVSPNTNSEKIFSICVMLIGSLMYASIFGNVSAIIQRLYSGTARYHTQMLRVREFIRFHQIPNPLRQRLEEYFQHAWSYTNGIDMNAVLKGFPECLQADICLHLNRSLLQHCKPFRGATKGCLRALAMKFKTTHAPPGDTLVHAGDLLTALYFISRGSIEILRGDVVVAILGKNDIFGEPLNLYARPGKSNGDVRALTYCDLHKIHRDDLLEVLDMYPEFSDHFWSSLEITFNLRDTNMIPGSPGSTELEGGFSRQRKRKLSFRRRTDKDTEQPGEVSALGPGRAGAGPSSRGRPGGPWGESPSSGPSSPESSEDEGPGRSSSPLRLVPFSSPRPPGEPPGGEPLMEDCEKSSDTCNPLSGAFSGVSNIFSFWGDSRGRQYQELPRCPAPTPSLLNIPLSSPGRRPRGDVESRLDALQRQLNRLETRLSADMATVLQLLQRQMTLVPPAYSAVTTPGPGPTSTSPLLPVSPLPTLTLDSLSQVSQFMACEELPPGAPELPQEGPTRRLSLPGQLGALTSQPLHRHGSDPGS

Structure (SMILES) | hERG current change (%, negative = inhibition) at 1uM
COC(=O)c1c(C)oc(C)c1S(=O)(=O)NCc1ccc(Cl)cc1Cl | -1.2%
Oc1sc(C=Nc2ccc(F)cc2)c2ccccc12 | 19.5%
CCCCCN(C(=O)CCC(=O)OCC(=O)c1ccc(C(C)(C)C)cc1)c1c(N)n(CCCC)c(=O)[nH]c1=O | 4.2%
COC(=O)c1cc(OC)c(OC)cc1NC(=S)N1CCN(C/C=C/c2ccccc2)CC1 | 5.63%
COC(=O)C1=C(c2ccccc2)C[C@@H]2CC[C@H]1N2C(=O)N1CCC(O)CC1 | 10.3%
CCOC(=O)c1cnc2ccc(C)cc2c1Sc1ccccc1C(=O)OC | 4.32%
CCCc1nnc(NC(=O)CSc2nnc(-c3ccco3)n2C)s1 | 15%
Cc1cc(C)n(C(=O)CNc2cccc(Cl)c2C)n1 | 10.3%
O=C1Nc2ccccc2S/C1=C/NCc1ccccc1Cl | 7.47%
Cn1cc([N+](=O)[O-])c(C(=O)NNC(=O)c2ccc([N+](=O)[O-])cc2)n1 | 17.7%
COc1ccc(-n2ncc3c(=O)n(CC(=O)N(C(C)C)C(C)C)cnc32)cc1 | 8.56%
Cc1ccc(S(=O)(=O)N(Cc2cccc(F)c2)C(=O)N2CCN(C)CC2)cc1 | 23.3%
CCSc1nc(N2CCOCC2)c2c(c1C#N)CCCC2 | -4.42%
NC(=O)C1(C(N)=O)OC1c1ccccc1 (stereo not shown) | 11.6%
O=C(CN1CCN(Cc2ccc(Cl)cc2)C1=O)NCCN1CCCC1 | 13.3%
CN1C(C(=O)NCc2cccc(Br)c2)CC2Cn3c(nc4cc(Cl)c(Cl)cc43)C21 (stereo not shown) | 4.64%
C=CCSC1=C(C#N)C(c2ccccc2OCC)CC(=O)N1 (stereo not shown) | 12%
C=CCN(C(=O)Nc1ccccc1)C1CC(=O)N(c2ccc(OC)cc2)C1=O (stereo not shown) | -1.23%
O=C1CC(N(C(=O)c2ccco2)c2cccc(Cl)c2)C(=O)N1c1cccc(Cl)c1 (stereo not shown) | 4.49%
Cc1nc(NC(C)C(=O)O)c2nc(C)oc2n1 (stereo not shown) | -10.4%
CCOC(=O)N1CCN(C(=O)COC(=O)CSc2ccc([N+](=O)[O-])cc2)CC1 | 8.1%
CC(C)CCOP(=O)(c1ccc(N(C)C)cc1)C(O)c1ccccc1F (stereo not shown) | 4.4%

Structure (SMILES) | hERG current change (%, negative = inhibition) at 1uM
COc1cc(C(=O)Nc2cccc3cccnc23)cc(OC)c1OC | -3.57%
CN(C1CCCCC1)S(=O)(=O)c1ccc(C(=O)N2CCN(c3nc4ccccc4s3)CC2)cc1 | 17.8%
O=C(O)c1ccc2c(c1)N(Cc1ccccc1)C(=O)c1ccccc1S2=O (stereo not shown) | 21.7%
O=C(CSc1ccc(-c2ccccn2)nn1)NC1CCCCC1 | 8.5%
CCc1ccc(OCC(=O)Nc2ccc(S(=O)(=O)N3CCOCC3)cc2)cc1 | -2.24%
CN1CCc2nc3ccccc3c(C(=O)OCC(=O)N(CCC#N)c3ccccc3)c2C1 | 8.4%
O=C(N/N=C/c1sc2ccccc2c1O)c1cccc2ccccc12 | 10.4%
O=C(CN1CCCCCCC1)NC(=O)NC1CCCCC1 | 15.5%
Cc1cccc(OC(=O)CCN2C(=O)C3C4C=CC(C5CC45)C3C2=O)c1C (stereo not shown) | 11.9%
Cc1[nH]c2ccccc2c1C(=O)C(=O)N1CC(C)OC(C)C1 (stereo not shown) | 14.4%
COc1ccc(CCN(Cc2ccccn2)C(=S)Nc2ccccc2Cl)cc1OC | 0.868%
COc1cc2c(cc1OC)CN(c1nc(CN3CCCC3)nc3sc(C)c(C)c13)CC2 | -22.9%
Cc1ccc(S(=O)(=O)/N=C2/NC(=O)/C(=C/c3ccncc3)S2)cc1 | 21.1%
COc1cc(CO)c(Br)cc1OCC(N)=O | 12.7%
Cc1noc(C)c1COC(=O)c1ccccc1NC(=O)c1ccco1 | -4.29%
CC(C)C(=O)NC(=S)NCC(=O)c1ccccc1 | 1.31%
CCc1ccc(NC(=O)CCc2ccc(CC)o2)cc1 | 19.3%
CCOC(=O)C1=C(C)C(c2ccc(OC)cc2)NC(=S)N1 (stereo not shown) | 1.33%
Cc1cc(Cl)c(OCCN2C(=O)NC(C)(C)C2=O)c(Br)c1 | 5.92%
COc1ccccc1NC(=O)C1CCCN(C(=O)Nc2ccc(F)cc2)C1 (stereo not shown) | 12%
CS(=O)(=O)N1CCC(C(=O)Nc2ccc(C(F)(F)F)cc2)CC1 | 18.9%
Cc1ccc2sc(N(CCCN(C)C)C(=O)c3ccc(S(=O)(=O)N4CCc5ccccc5C4)cc3)nc2c1C.Cl | 13.4%

Structure (SMILES) | hERG current change (%, negative = inhibition) at 1uM
Cc1c(NC(=O)C(C)OC(=O)c2cccc([N+](=O)[O-])c2)c(=O)n(-c2ccccc2)n1C (stereo not shown) | 6.49%
Cc1ccc(NS(=O)(=O)c2cccc(C(=O)NN3CCOCC3)c2)cc1 | 22.4%
CCC(C)N(C(=O)COC(=O)c1ccc(=O)n(Cc2ccccc2)n1)C1CCS(=O)(=O)C1 (stereo not shown) | 5.04%
COc1ccc(CCNC(=O)CCCn2nc(C)n3ccnc3c2=O)cc1OC | -6.5%
CC(C)(O)C(=O)NNC(=S)Nc1cccc(C(F)(F)F)c1 | -6.99%
Nc1nc(CSc2ncccn2)nc(Nc2ccccc2)n1 | 5.26%
COc1cccc(CNC(=O)Cc2nc3nc(C)cc(C)n3n2)c1 | 14.5%
O=C1OCCC1Sc1ncnc2sccc12 (stereo not shown) | -4.95%
CC(Cl)C(=O)Nc1c2c(nn1-c1ccccc1)CSC2 (stereo not shown) | 7.33%
CCOC(=O)C1=NN(c2ccccc2)C2=NC(C)=C(C(=O)OC)C(c3cccs3)N12 (stereo not shown) | -2.54%
Cc1cc(C)cc(C(=O)NC(=S)Nc2ccc3[nH]c(=O)[nH]c3c2)c1 | 16.5%
COc1ccc(S(=O)(=O)Nc2cccnc2)c(Cl)c1Cl | 10.7%
O=C([C@H](O)c1ccccc1)N1CCC[C@H]1CO | 3.94%
COC(=O)CSC1=NN1c1cc(C)nc(N)n1 | 6.97%
COc1ccc(CCNC(=O)C2CCN(C(=O)c3ccc(OC)c(OC)c3)CC2)cc1 | 13.3%
Cc1cc(=O)oc2cc(OCC(=O)N3CCc4ccccc4C3)ccc12 | -2.54%
O=C1CNC(c2ccccc2Cl)c2cc(Br)ccc2N1 (stereo not shown) | 14.2%
CCOc1cccc(/C=N/N2C(C)CCCC2C)c1O (stereo not shown) | 2.07%
O=C(N/N=C\c1cn[nH]c1-c1ccccc1)c1cccnc1 | 6.4%
CC(C)CN(C(=O)c1cc(Cl)nc2ccccc12)c1c(N)n(Cc2ccccc2)c(=O)[nH]c1=O | 4.31%
CC1(C2CC2)NC(=O)N(CC(=O)Nc2ccccc2-c2ccccc2)C1=O (stereo not shown) | 15%
Cc1cc(C)nc(SCc2cn3c(C)cccc3n2)n1 | 13.6%

Structure (SMILES) | hERG current change (%, negative = inhibition) at 1uM
O=C(CSc1nccn1-c1ccc(F)cc1)NCc1ccc2c(c1)OCO2 | 3.65%
O=C(CSc1n[nH]c(-c2ccncc2)n1)Nc1ccccc1Cl | 12.2%
CCN(CC)CCOC(=O)C(Cc1ccco1)Cc1cccc2ccccc12.O=C(O)C(=O)O (stereo not shown) | -62.8%
COc1cc(Cl)c(C)cc1NC(=O)COc1cc(C)nc(C(C)C)n1 | 6.55%
CCCCOCCCNC(=O)N[C@@H](CC(C)C)C(=O)O | -5.11%
CC1Cc2ccccc2N1S(=O)(=O)c1cccc(C(=O)Nc2cccnc2)c1 (stereo not shown) | -5.15%
COc1ccc(NC2CCCN(C(=O)CCn3cccn3)C2)cc1 (stereo not shown) | 20.6%
COc1ccc2nc(Nc3nc(CSc4nnc(C)s4)cc(=O)[nH]3)nc(C)c2c1 | 4.59%
Cc1ccccc1N1C(=O)C(Cl)=C(N2CCN(c3ccccc3)CC2)C1=O | 12.9%
BrCC(Br)(Br)Br | 19.6%
CC(C(=O)Nc1ccc(Br)cc1C(=O)c1ccccc1)N1CCCCC1 (stereo not shown) | -3.23%
Cc1cc(NC(=O)Nc2ccccc2F)ccc1Br | 14.8%
Cc1ccc(-n2ncc3c2CC(C)(C)CC3NC(=O)c2c(C)noc2C)cc1 (stereo not shown) | -13%
COc1ccc(/C=N/Nc2nc(Nc3ccccc3)nc(N3CCCCC3)n2)c(OC)c1 | 13.1%
Cc1ccc(CCNC(=O)CCS(=O)(=O)c2ccc3nc(C)sc3c2)cc1 | 6.44%
COc1cc(C(=O)NCCC(=O)N2CCCCC2)cc(OC)c1OC | 12.3%
COc1cccc2c(SCC(=O)N/N=C/c3ccccc3)cc(C)nc12 | 15%
COC(=O)c1ccc(C(=O)Nc2ccc(C(C)C)cc2N)cc1 | 19.4%
O=C(O)c1ccccc1C(=O)c1ccc2c(c1)N(Cc1ccc(Cl)c(Cl)c1)C(=O)CO2 | 7.58%
CCc1nc(OCc2ccccc2)c2sc3nc4c(cc3c2n1)COC(C)(C)C4 | -4.86%
Cc1cc(=O)oc2cc(OCc3ccc(C(=O)OCC(=O)NC4CCS(=O)(=O)C4)cc3)ccc12 (stereo not shown) | 3.64%
O=C(CCNC(=O)Cn1ccc2ccccc2c1=O)NCCN1CCc2ccccc2C1 | 10.5%
